# Measured values as given in PubChem BioAssay AID1508649 (National Center for Advancing Translational Sciences (NCATS), 2021).
# Screen size: about 43,000 compounds; about 830 (1.9%) were called active. This list was built around the results that the source calls inconclusive (neither active nor inactive); the mix of calls is not that of the screen. How the source made its calls: active means clear falling dose curves in both reporters; inconclusive means both reporters move, but less clearly or upward; inactive means either reporter flat; the % is the NLuc reporter signal. No potency is given beside an inconclusive call; the fits are too rough.
# Test: Cell-based coincidence reporter assay to measure PMP22 gene transcription in S16 Pmp22-F2sN cells - Primary screen
# Conditions: S16 Pmp22-F2sN Schwann cells (luciferase reporters placed in the Pmp22 gene), FLuc/NLuc coincidence luminescence, 24 h; measured here: NLuc reporter readout, at 57.5 µM (top of the series)
# Method in brief: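 Reporter cells (S16 Pmp22-F2sN, 500–1,000 per well) exposed to compounds for 24 h, 37C, 5% CO2; lysis with FLuc read after 10 min, then Stop&Glo and NLuc read after 10 min.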
# Potency means the concentration at half of the fitted maximal effect; tags describe the fitted curve by direction and shape.
row,Compound,Potency
1,CC(=O)c1ccc(NS(=O)(=O)c2cnc(N)nc2)cc1,"inconclusive [phenotype inactive, single point]"
2,Cc1nn(-c2ccccc2)c2c1N(CCCC(=O)NCc1ccccc1)C(=O)CS2,"inconclusive [phenotype inactive, partial curve, poor fit]"
3,Cc1ccc(OCC(=O)Nc2ccc3[nH]c(=O)sc3c2)cc1,active: 15 µM
4,Cc1c(C(=O)N(Cc2ccc(N(C)C)cc2)Cc2ccco2)oc2cc(Br)ccc12,"inconclusive [phenotype inactive, single point]"
5,COc1ccc(N(CC(=O)Nc2cc(Cl)ccc2C)S(=O)(=O)c2c(C)noc2C)cc1,active: 13.5 µM
6,CCCc1cc(=O)oc2cc(C)c3c(C(C)(C)C)coc3c12,"inconclusive [phenotype inactive, partial curve]"
7,COc1ccccc1OCCCCn1c(-c2ccc(Cl)cc2)nc2ccccc2c1=O,"inconclusive [phenotype inactive, single point]"
8,CCN(CCCNC(=O)c1cc(Nc2ccc(OC)cc2OC)nc2ccccc12)c1cccc(C)c1,active: 15 µM
9,COc1ccc(NC(=O)Cn2c(=O)n(Cc3ccccc3Cl)c(=O)c3cc(OC)c(OC)cc32)cc1OC,active: 13.4 µM
10,CCN(CC)CCn1c(-c2ccccc2)csc1=Nc1ccccc1,"inconclusive [phenotype inactive, single point]"
11,COc1ccc(NC(=O)c2c(NCc3cccs3)sc3c2CCCC3)cc1,"inconclusive [phenotype inactive, single point]"
12,CC(C)c1ccc(NC(=O)Nc2csc3c2CCCC3)cc1,"inconclusive [phenotype inactive, single point]"
13,COc1cc2ccccc2cc1C(=O)Nc1ccc2oc(-c3ccc(Cl)cc3)nc2c1,"inconclusive [phenotype inactive, single point]"
14,CCOCCCNC(=O)c1c(NC(=O)c2cc(=O)c3ccccc3o2)sc2c1CCC2,"inconclusive [phenotype inactive, single point]"
15,Cc1ccc(OCC(=O)Nc2sc3c(c2C(N)=O)CCCC3)c(C(C)(C)C)c1,"inconclusive [phenotype inactive, single point]"
16,CCS(=O)(=O)c1ccccc1C(=O)N1CCN(c2nc3ccccc3s2)CC1,"inconclusive [phenotype inactive, partial curve, poor fit]"
17,CCc1cccc(NC(=O)CN(c2ccc(C)cc2)S(=O)(=O)c2cccs2)c1,"inconclusive [phenotype inactive, single point]"
18,O=C(Nc1ccc(F)cc1)Nc1ccc2snnc2c1,"inconclusive [phenotype inactive, single point]"
19,COc1cccc(C(=O)NCCc2csc(-c3cccc(F)c3)n2)c1OC,"inconclusive [phenotype inactive, single point]"
20,O=C(NC1CC(=O)N(c2ccccc2)C1)c1ccco1 (configuration not stated),"inconclusive [phenotype inactive, single point]"
21,CCCCNc1sc(S(=O)(=O)CCC)nc1S(=O)(=O)c1ccc(C)cc1,inactive

row,Compound,Potency
1,COc1ccc(Cl)cc1C1CC(=O)Nc2cc3c(cc21)OCCO3 (configuration not stated),active: 2.47 µM
2,CCc1cccc(NC(=O)Cn2ncc3c([nH]c4ccc(C)cc43)c2=O)c1,inactive
3,Cc1ccc(NC(=O)C2CCCN(S(=O)(=O)c3c(C)n[nH]c3C)C2)cc1Cl (configuration not stated),"inconclusive [phenotype inactive, single point]"
4,COC(=O)c1c(C)oc2ccc(N(C(=O)Oc3ccccc3)S(=O)(=O)c3ccc(C(C)(C)C)cc3)cc12,active: 6.58 µM
5,CCSc1ncc(Cl)c(C(=O)N(Cc2ccccc2)Cc2ccco2)n1,"inconclusive [phenotype inactive, single point]"
6,CCCCc1ccc(NS(=O)(=O)c2ccc(N3CCCCS3(=O)=O)cc2)cc1,inactive
7,Cc1ccc(C)c(S(=O)(=O)NCCc2csc(-c3ccc(Cl)cc3)n2)c1,"inconclusive [phenotype inactive, single point]"
8,COc1ccc(OC)c(/C=C(\C#N)c2nc3ccccc3c(=O)[nH]2)c1,"inconclusive [phenotype inactive, single point]"
9,O=C(c1cnc(N2CCCCC2)c2ccccc12)N1CCN(c2ccc(Cl)cc2)CC1,"inconclusive [phenotype inactive, partial curve]"
10,O=C(Nc1ccc(Cl)cc1)c1cc2nc(-c3ccc4c(c3)OCO4)cc(C(F)(F)F)n2n1,"inconclusive [phenotype inactive, single point]"
11,O=C(c1ccc2c(c1)N(Cc1ccc(F)cc1)C(=O)c1ccccc1S2(=O)=O)N1CCN(c2ccccn2)CC1,active: 15.6 µM
12,COc1ccc(NC(=O)c2cc(S(=O)(=O)NCCC3=CCCCC3)ccc2F)cc1,"inconclusive [phenotype inactive, single point]"
13,Cc1cccc(-c2nnn3c2nc(NCCC(C)C)c2ccccc23)c1,active: 13.4 µM
14,CCN(CC)CCNC(=O)c1ccc2c(=O)n3nc(Nc4cccc(Cl)c4C)sc3nc2c1,"inconclusive [phenotype inactive, single point]"
15,Cc1ccc(C)c(N2CCN(S(=O)(=O)c3ccc4c(c3)n(C)c(=O)c(=O)n4C)CC2)c1,inactive
16,Cc1ccc(Cn2cc3c(n2)-c2c(oc(C(=O)Nc4ccc(F)cc4F)c2C)CC3)cc1,"inconclusive [phenotype inactive, partial curve, poor fit]"
17,Cc1cc(C)cc(NC(=O)CCc2nnc3n(C)c(=O)c4sccc4n23)c1,inactive
18,Cc1ccc(-c2nc3c(c(SCC(=O)N(C)c4ccccc4)n2)Cc2c(CO)cnc(C)c2O3)cc1,"inconclusive [phenotype inactive, partial curve]"
19,Cc1ccc(/C=C/C(=O)Nc2nc(-c3cccs3)ns2)cc1,"inconclusive [phenotype inactive, single point]"
20,CCOc1ccc2nc(N3CCN(C(=O)c4ccc(S(=O)(=O)CC)cc4)CC3)sc2c1,inactive
21,COc1cc(OC)cc(C(=O)Nc2cc(-c3nc4ccccc4[nH]3)ccc2C)c1,inactive

row,Compound,Potency
1,Cc1cc(C)c(NC(=O)Cn2c(=O)n(Cc3ccc(C(=O)NCc4ccc5c(c4)OCO5)cc3)c(=O)c3ccccc32)c(C)c1,active: 11.2 µM
2,Cc1ccc(NC(=O)c2oc3c(c2C)-c2[nH]ncc2CC3)c(Cl)c1,inactive
3,Cc1ccc(CNC(=O)c2ccc(Nc3nc4ccccc4n4nnnc34)cc2)cc1,active: 8 µM
4,Cc1ccn2c(Nc3ccc4c(c3)OCCO4)c(-c3ccccc3O)nc2c1,"inconclusive [phenotype inactive, partial curve]"
5,Cc1ccc2nc(-c3ccc(F)cc3)c(NC(C)(C)CC(C)(C)C)n2c1,"inconclusive [phenotype inactive, single point]"
6,COc1ccc(NC(=O)CN2CCN(Cc3ccccc3Cl)S2(=O)=O)cc1Cl,"inconclusive [phenotype inactive, single point]"
7,CCOc1ccccc1N(C)C(=O)c1cc2c(s1)-c1ccccc1OC2,"inconclusive [phenotype inactive, single point]"
8,O=C(NCc1cccc(Cl)c1)c1cc2c(s1)-c1ccccc1SC2,inactive
9,CCOCCCNC(=O)c1ccc(-n2c(-c3ccccc3)cc3c2CCCCC3)cc1,inactive
10,CN(C)CCN(Cc1ccco1)C(=O)c1oc2ccccc2c1NC(=O)c1cccc(F)c1,"inconclusive [phenotype inactive, single point]"
11,CCN(CC)S(=O)(=O)c1ccc2c(c1)N(CC(=O)NCCCN1CCN(c3cc(Cl)ccc3C)CC1)C(=O)CO2,active: 20 µM
12,Oc1ccc(NCc2ccc(OCc3ccccc3)cc2)cc1,active: 4.56 µM
13,CCc1ccc(C(=O)c2cn(CC(=O)Nc3cc(F)ccc3F)c3nc(C)ccc3c2=O)cc1,inactive
14,CC1CCCN(S(=O)(=O)c2cc3c4c(c2)CC(=O)N4CCC3)C1 (configuration not stated),"inconclusive [phenotype inactive, single point]"
15,COc1ccc(CNc2nc(SCc3ccccc3Cl)nc3ccccc23)cc1,"inconclusive [phenotype inactive, single point]"
16,O=C(Nc1cccc(Cl)c1)C1CCCN(c2ncnc3c2nc2n3CCCCC2)C1 (configuration not stated),"inconclusive [phenotype inactive, partial curve]"
17,CC(=O)c1ccc(N2CCN(C(=O)Nc3ccc(C(C)C)cc3)CC2)cc1,"inconclusive [phenotype inactive, single point]"
18,COc1ccc(NS(=O)(=O)c2ccc3[nH]c4c(c3c2)CCCCC4)cc1,"inconclusive [phenotype inactive, single point]"
19,CC1CCN(C(=O)CSc2nc3ccccc3nc2Cc2ccccc2)CC1,"inconclusive [phenotype inactive, partial curve, poor fit]"
20,Cc1cc(C)cc(NC(=O)c2cc(S(=O)(=O)N3CCc4ccccc43)cn2C)c1,"inconclusive [phenotype inactive, single point]"
